In PubChem BioAssay AID1030 (National Center for Advancing Translational Sciences (NCATS), 2008):
Out of some 220,000 compounds screened, about 16,000 (7.3%) were called active. The shares of active, inactive and inconclusive entries below differ from those in the screen. The call rests on the fitted dose curve; in most records, active means well fitted inhibition curve with a large enough effect (not every such curve was filed as active); inconclusive means small, poorly fitted or top-dose-only effect, or another doubt; inactive means no such curve, though single readings can be large or run the other way. Where the call is inconclusive, the potency comes from a doubtful curve fit.

What follows are compounds tested against Aldehyde dehydrogenase 1A1 (Homo sapiens) (UniProt P00352) (assay: qHTS Assay for Inhibitors of Aldehyde Dehydrogenase 1 (ALDH1A1)). Conditions: Purified ALDH1A1, NADH fluorescence, propionaldehyde substrate; series mostly up to 75.3 µM; activity, negative = inhibition: at the top concentration.
Potency means the concentration at half of the fitted maximal effect; tags describe the fitted curve by direction and shape.
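Wherever activity, negative = inhibition is given: plate controls were no enzyme wells and a reference inhibitor.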

Chain of UniProt P00352 (P00352 whole entry, looked up): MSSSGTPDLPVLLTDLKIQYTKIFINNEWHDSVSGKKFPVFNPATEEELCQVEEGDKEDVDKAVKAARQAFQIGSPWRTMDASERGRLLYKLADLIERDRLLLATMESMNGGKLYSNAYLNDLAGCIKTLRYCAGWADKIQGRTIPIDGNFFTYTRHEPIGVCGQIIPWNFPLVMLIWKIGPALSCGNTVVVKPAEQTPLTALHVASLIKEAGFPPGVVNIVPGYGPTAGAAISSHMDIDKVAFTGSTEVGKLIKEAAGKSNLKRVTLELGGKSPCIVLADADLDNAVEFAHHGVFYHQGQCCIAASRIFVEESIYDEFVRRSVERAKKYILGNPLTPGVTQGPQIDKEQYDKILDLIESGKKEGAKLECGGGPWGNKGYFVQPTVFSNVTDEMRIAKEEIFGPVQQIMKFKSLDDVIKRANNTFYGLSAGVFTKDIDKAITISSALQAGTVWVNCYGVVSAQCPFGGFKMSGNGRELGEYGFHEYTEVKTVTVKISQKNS

Potency, inconclusive:
CC(=O)Nc1ccc(Nc2ccc(S(=O)(=O)C(F)(F)F)cc2[N+](=O)[O-])cc1 31.6 µM [inhibitor, single point]
CC(=O)c1ccc(OC(C)C)c(CSc2nc(O)cc(=O)[nH]2)c1 39.8 µM [inhibitor, single point]
S=C(NCc1ccco1)Nc1ccc(N2CCOCC2)cc1 35.5 µM [inhibitor, single point]
CCOC(=O)Cn1nnnc1CN(Cc1cccs1)Cc1cc2cc(C)cc(C)c2[nH]c1=O 15.8 µM [inhibitor, partial curve]
COC(=O)c1sc2ccccc2c1NC(=O)c1coc2ccccc2c1=O 7.08 µM [inhibitor, single point]
O=C(NCc1ccco1)c1cnc2sccn2c1=O 39.8 µM [inhibitor, single point]
CCN(CCNS(=O)(=O)c1ccc2[nH]c(=O)sc2c1)c1ccccc1 39.8 µM [inhibitor, single point]
O=C(NC(=S)N1CCN(Cc2ccccc2)CC1)c1ccccc1 39.8 µM [inhibitor, single point]
O=[N+]([O-])c1ccc(CN2CCCCCC2)s1 39.8 µM [inhibitor, single point]
c1cn2cc(CSC3CCCCC3)nc2s1 25.1 µM [inhibitor, partial curve]
CCCCCCC#CC1C=CC(Oc2ccc(C=O)cc2)C(CO)O1 (stereo unspecified) 7.08 µM [inhibitor, single point]
O=C(CCS(=O)(=O)c1ccccc1)Nc1nc2c(s1)CCCC2 22.4 µM [inhibitor, single point]

Potency, inactive:
COC(=O)CC1c2ccccc2C(Cc2ccc3c(c2)OCO3)=C(C)N1C(=O)OC (stereo unspecified)

Potency, active:
CS(=O)(=O)Nc1ccc(C2=NN(C(=O)c3ccco3)C(c3cccc(F)c3)C2)cc1 (stereo unspecified) 14.1 µM
C=CCOC(=O)C1=C(C)NC(=S)NC1/C=C/c1ccccc1 (stereo unspecified) 0.0447 µM
O=C(COC(=O)c1cccc([N+](=O)[O-])c1)c1ccc(OCc2ccccc2)cc1 14.1 µM

activity, negative = inhibition, inactive:
COc1ccc(Cl)cc1NC(=S)NNC(=O)c1cccnc1 -15.2%
CCCCN(C(=O)CSc1nnc(-c2ccccc2)n1C)c1c(N)n(Cc2ccccc2)c(=O)[nH]c1=O -3.05%
COC(=O)[C@H]1[C@H](C(=O)OC)[C@@H](C(=O)OC)N(c2ccc(OC)cc2)[C@@H]1C(=O)OC 4.15%
CC(COc1cccc2ccccc12)CN1CCN(C)CC1 (stereo unspecified) -10.6%
O=C(N/N=C/c1ccc(Cl)cc1)C1CC12CCC2 (stereo unspecified) 5.17%
